Results on two substances are retold here after PMC7331671.

Amino acid sequences for entries named in this document (tags omitted). A change or cut given only in a name is not applied to a line headed by its entry. Residues count along the entry.
UniProt P19022, residues 160-906: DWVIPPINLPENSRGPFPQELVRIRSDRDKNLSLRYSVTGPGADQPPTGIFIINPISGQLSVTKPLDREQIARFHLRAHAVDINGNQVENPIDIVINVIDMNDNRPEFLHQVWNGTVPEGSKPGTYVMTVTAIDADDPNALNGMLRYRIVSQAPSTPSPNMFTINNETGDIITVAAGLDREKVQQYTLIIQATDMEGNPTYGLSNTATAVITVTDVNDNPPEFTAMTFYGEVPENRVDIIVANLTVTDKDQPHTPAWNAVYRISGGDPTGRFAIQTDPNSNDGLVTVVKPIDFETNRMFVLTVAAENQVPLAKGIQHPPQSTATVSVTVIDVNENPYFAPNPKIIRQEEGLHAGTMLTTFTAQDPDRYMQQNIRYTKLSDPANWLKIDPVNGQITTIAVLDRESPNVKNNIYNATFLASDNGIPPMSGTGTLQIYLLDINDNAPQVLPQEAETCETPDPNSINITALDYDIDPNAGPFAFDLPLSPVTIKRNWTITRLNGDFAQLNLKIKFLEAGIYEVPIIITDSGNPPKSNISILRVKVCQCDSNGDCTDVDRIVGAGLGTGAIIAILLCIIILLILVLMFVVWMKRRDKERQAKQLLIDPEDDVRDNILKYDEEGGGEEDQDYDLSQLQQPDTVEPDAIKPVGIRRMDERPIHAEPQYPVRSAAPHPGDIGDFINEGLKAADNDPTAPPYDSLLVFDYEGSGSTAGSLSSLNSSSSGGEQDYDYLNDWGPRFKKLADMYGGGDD
UniProt P35590, residues 22-1138: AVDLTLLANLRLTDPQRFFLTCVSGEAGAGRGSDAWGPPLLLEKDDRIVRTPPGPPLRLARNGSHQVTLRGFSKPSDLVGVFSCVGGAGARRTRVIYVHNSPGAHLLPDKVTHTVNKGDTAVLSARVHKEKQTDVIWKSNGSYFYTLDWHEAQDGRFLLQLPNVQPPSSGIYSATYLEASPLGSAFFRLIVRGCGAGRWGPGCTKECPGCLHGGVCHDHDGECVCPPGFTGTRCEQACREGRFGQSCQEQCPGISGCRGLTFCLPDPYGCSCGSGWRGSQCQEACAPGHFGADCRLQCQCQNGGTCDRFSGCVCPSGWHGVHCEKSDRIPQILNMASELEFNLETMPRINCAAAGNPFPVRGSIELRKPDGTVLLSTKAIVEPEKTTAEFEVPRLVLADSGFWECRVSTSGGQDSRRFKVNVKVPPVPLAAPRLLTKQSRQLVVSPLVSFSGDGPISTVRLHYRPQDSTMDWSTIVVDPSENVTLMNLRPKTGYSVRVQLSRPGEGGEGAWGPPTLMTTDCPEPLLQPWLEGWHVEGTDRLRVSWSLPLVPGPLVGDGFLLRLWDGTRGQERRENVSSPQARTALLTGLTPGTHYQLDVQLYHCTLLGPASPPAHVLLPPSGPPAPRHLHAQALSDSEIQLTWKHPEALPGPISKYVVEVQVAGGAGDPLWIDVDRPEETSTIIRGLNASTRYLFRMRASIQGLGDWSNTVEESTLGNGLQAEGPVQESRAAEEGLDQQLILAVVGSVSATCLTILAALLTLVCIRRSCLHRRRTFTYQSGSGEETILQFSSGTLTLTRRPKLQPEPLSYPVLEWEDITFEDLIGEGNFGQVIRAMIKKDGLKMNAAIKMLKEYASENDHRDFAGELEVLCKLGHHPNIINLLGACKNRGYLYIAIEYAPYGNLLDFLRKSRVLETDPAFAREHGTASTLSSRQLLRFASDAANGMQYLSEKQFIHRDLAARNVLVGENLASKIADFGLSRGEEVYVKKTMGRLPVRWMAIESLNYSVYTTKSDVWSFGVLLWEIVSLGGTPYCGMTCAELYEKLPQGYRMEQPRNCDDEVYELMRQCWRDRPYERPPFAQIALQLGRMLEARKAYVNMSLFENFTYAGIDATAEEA
UniProt Q9NZQ7: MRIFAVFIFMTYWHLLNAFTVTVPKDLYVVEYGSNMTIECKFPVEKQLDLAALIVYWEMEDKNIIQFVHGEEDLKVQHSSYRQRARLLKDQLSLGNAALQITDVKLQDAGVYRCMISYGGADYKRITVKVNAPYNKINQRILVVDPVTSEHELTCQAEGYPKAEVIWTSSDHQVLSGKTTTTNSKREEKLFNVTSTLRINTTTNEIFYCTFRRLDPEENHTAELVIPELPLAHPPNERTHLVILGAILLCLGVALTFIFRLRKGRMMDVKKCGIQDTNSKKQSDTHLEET

Results are given in words; binding and its absence hold for the method and conditions named. Some results given as binding are weak or reduced against the parent protein; the word gives no strength.

The target of assay [1] is T1, full length human PCDH7 expressed in HEK293 cells (human) (UniProt O60245).
T1 sequence: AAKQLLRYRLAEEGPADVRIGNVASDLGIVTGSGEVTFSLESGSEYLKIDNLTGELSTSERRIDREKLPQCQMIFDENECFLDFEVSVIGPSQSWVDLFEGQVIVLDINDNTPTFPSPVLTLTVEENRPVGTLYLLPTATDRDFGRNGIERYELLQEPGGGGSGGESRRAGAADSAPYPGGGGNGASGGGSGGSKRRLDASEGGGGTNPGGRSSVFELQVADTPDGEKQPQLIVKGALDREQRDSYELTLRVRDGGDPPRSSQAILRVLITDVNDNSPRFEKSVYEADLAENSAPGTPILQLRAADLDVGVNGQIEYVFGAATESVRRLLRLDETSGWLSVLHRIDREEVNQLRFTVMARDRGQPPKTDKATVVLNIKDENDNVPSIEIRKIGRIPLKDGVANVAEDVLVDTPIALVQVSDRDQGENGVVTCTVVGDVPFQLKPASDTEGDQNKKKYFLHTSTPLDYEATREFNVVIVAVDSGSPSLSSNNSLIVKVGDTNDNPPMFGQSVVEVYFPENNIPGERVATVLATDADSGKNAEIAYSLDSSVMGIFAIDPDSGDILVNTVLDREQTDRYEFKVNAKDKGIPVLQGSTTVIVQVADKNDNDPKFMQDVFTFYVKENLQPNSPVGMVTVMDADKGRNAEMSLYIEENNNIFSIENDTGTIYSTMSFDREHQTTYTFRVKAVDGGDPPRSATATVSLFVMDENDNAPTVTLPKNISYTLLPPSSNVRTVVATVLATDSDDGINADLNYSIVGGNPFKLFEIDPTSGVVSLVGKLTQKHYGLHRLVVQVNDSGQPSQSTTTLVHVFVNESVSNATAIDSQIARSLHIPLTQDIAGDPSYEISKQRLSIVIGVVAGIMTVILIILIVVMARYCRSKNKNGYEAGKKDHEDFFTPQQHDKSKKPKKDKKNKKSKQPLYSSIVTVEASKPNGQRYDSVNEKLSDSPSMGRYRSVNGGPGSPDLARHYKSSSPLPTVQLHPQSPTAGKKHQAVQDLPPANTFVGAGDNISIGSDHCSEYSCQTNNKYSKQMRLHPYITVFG
Nature of the assay: flow cytometry on cells; HEK293 cells transfected with full length human PCDH7; 5 μg/mL purified Fc-tagged protein in 1% BSA for 1 h at 4 °C; detected with anti-human-Fc FITC; FITC geometric mean; only the binder purified.

Assay [2] deals with T2, ARMCX3, clone of the single-pass transmembrane protein library expressed in COS-7 cells (UniProt Q9UH62).
T2 sequence: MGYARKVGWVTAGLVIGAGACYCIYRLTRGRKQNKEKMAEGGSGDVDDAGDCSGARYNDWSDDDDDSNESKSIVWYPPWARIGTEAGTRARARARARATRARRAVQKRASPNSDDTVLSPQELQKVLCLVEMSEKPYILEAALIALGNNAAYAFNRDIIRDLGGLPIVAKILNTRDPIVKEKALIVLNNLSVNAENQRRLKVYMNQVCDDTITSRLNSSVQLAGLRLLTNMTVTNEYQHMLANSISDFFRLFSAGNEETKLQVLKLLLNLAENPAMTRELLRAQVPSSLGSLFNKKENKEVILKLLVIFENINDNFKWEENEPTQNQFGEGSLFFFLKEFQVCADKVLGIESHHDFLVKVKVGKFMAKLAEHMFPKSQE
Put plainly: single-clone expression cloning screen (binding of a purified Fc-tagged bait to transfected cells, fluorescence imaging); COS7 cells in 384-well plates, each well transfected with one library clone, 48 h; blocked with 1% BSA; GluN1-NTD-Fc 10 μg/mL for 1 h at 4 °C; fixed; detected with Alexa Fluor-488 anti-human IgG; z-score threshold > 5; duplicate plates; only the binder purified.

In assay [3] the target is N-Cadherin, clone of the single-pass transmembrane protein library expressed in COS-7 cells (UniProt P19022). The description is as above.
Assay [4] concerns the target T3, Protocadherin 7 (PCDH7), clone of the single-pass transmembrane protein library expressed in COS-7 cells (UniProt O60245).
T3 sequence: T1 sequence
The description is as above.

Assay [5] addresses TIE1, clone of the single-pass transmembrane protein library expressed in COS-7 cells (UniProt P35590). The description is as above.

Regarding “PD-L1-Fc control protein (from UniProt Q9NZQ7 19-238) (Fc fusion)”, in assay [1], the binding entry was “no binding (tested: 5 μg/mL)”.

Regarding “GluN1-NTD-Fc (human GRIN1 D23-Q393 fused to the Fc portion of human IgG1) (from UniProt Q05586 23-393) (Fc fusion)”, the binding result in assay [1] is listed as “binds”; in assay [2], “no binding (tested: 10 μg/mL)”; in assay [3], “no binding (tested: 10 μg/mL)”; in assay [4], “binds”; in assay [5], “no binding (tested: 10 μg/mL)”.
